B1: PhoQ; a variant is named by its letters at X, in order, P23837 (parent)
chain: MKKLLRLFFPLSLRVRFLLATAAVVLVLSLAYGMVALIGYSVSFDKTTFRLLRGESNLFYTLAKWENNKLHVELPENIDKQSPTMTLIYDENGQLLWAQRDVPWLMKMIQPDWLKSNGFHEIEADVNDTSLLLSGDHSIQQQLQEVREDDDDAEMTHSVAVNVYPATSRMPKLTIVVVDTIPVELKSSYMVWSWFIYVLSANLLLVIPLLWVAAWWSLRPIEALAKEVRELEEHNRELLNPATTRELTSLVRNLNRLLKSERERYDKYRTTLTDLTHSLKTPLXXLQXXLRSLRSEKMSVSDAEPVMLEQISRISQQIGYYLHRASMRGGTLLSRELHPVAPLLDNLTSALNKVYQRKGVNISLDISPEISFVGEQNDFVEVMGNVLDNACKYCLEFVEISARQTDEHLYIVVEDDGPGIPLSKREVIFDRGQRVDTLRPGQGVGLAVAREITEQYEGKIVAGESMLGGARMEVIFGRQHSAPKDE

The other results are listed elsewhere or left out. A value given as a limit tells only on which side of the number the result lay.

The experiment covers variants of B1. Description: enrichment ratio after two sorts for PhoP signalling (ratio (wild type AVST 3.29)); higher = more functional. The settings on record: with PhoP (E. coli).
On to WLRE, for which the enrichment ratio is ≤ 0.25. As for QSGI, the enrichment ratio stood at 4.66.

ANQN: the enrichment ratio is ≤ 0.25. The result for KEPY reads ≤ 0.25. The result for TRDM reads ≤ 0.25. With YTGQ the figure was ≤ 0.25; with HYNA, ≤ 0.25. Turning to VKKD, the enrichment ratio is ≤ 0.25. With RIGG the figure was ≤ 0.25; with EVTD, ≤ 0.25. The result for RDAP reads ≤ 0.25; that for FVII, ≤ 0.25; that for LQLE, ≤ 0.25. Regarding LPDR, the enrichment ratio was ≤ 0.25. With ILIF the figure was ≤ 0.25.

With TTTW, the enrichment ratio was 5.99. The result for SDNS reads ≤ 0.25; that for TWSC, ≤ 0.25. The result for PANR reads ≤ 0.25; that for GMCA, ≤ 0.25.

As to GDVK, the enrichment ratio is ≤ 0.25. The result for TSCY reads 10.7; that for YDMI, ≤ 0.25. The result for QKPP reads ≤ 0.25. With GGHS the figure was ≤ 0.25; with GSDN, ≤ 0.25. In the case of VYFS, the enrichment ratio is ≤ 0.25. Regarding GFVT, the enrichment ratio was ≤ 0.25. With YLDF the figure was ≤ 0.25; with LHRM, ≤ 0.25. With YFRE the figure was ≤ 0.25; with RTCG, ≤ 0.25. Turning to SLCD, the enrichment ratio amounted to 17.9.

Take FMRR: the enrichment ratio is ≤ 0.25.

For the variant FCVA, the enrichment ratio was ≤ 0.25. With NGVT the figure was ≤ 0.25; with SDTH, ≤ 0.25; with RWMF, ≤ 0.25. The result for VSQL reads ≤ 0.25; that for VELD, ≤ 0.25; that for NICY, ≤ 0.25. With VSLT the figure was 2.72. Turning to PKEK, the enrichment ratio is ≤ 0.25.

For GDSR, the enrichment ratio is ≤ 0.25. On to PGAA, for which the enrichment ratio was ≤ 0.25.

On to QNKI, for which the enrichment ratio is ≤ 0.25.

Regarding MYDG, the enrichment ratio was ≤ 0.25.

As to KLDW, the enrichment ratio was ≤ 0.25. With FAEF the figure was ≤ 0.25. As to QRPH, the enrichment ratio was ≤ 0.25.

For GMVI, the enrichment ratio is 1.93. With LSRD the figure was ≤ 0.25; with LNEN, ≤ 0.25; with YHWY, ≤ 0.25.

In the case of AQGR, the enrichment ratio is ≤ 0.25. With EAAF the figure was ≤ 0.25; with VIRP, ≤ 0.25; with WTPK, ≤ 0.25.

In the case of YEMV, the enrichment ratio came to 2.64. The result for GEWH reads ≤ 0.25; that for TMFY, ≤ 0.25; that for YNLS, 0.487. The result for LSAD reads ≤ 0.25. As to KNGS, the enrichment ratio is ≤ 0.25. For PPQY, the enrichment ratio is ≤ 0.25. With SHES the figure was ≤ 0.25; with QTVC, ≤ 0.25; with LLVH, ≤ 0.25.

ISRQ: the enrichment ratio was ≤ 0.25.

Take FKYC: the enrichment ratio was ≤ 0.25.

For the variant SDFH, the enrichment ratio was ≤ 0.25. With PSQI the figure was ≤ 0.25; with YKNA, ≤ 0.25. With PPEP the figure was ≤ 0.25.

Consider MQAS, for which the enrichment ratio turned out to be 8.02. The result for IQWY reads ≤ 0.25; that for QKRM, ≤ 0.25.

For the variant FLKC, the enrichment ratio is ≤ 0.25.

For the variant DIPF, the enrichment ratio is ≤ 0.25.

Consider KTRM, for which the enrichment ratio was ≤ 0.25. The result for NFYF reads ≤ 0.25; that for AWFV, ≤ 0.25. With DFAI the figure was ≤ 0.25; with MSLS, 5.72. The result for ETAH reads ≤ 0.25. Consider TDMM, for which the enrichment ratio is 11. Regarding ATAC, the enrichment ratio is ≤ 0.25.

APIR: the enrichment ratio was ≤ 0.25. With EAGH the figure was ≤ 0.25; with TWKT, ≤ 0.25. With QCHR the figure was ≤ 0.25. With ADHE the figure was ≤ 0.25; with PNQM, ≤ 0.25. For LCLS, the enrichment ratio is ≤ 0.25. The result for WSKV reads ≤ 0.25; that for DSYR, ≤ 0.25. Regarding FHWC, the enrichment ratio is ≤ 0.25. With IEHS the figure was ≤ 0.25; with NRFS, ≤ 0.25.

Consider HRKS, for which the enrichment ratio was ≤ 0.25.

Consider PVFN, for which the enrichment ratio was ≤ 0.25. Consider LDQF, for which the enrichment ratio is ≤ 0.25. On to SAPC, for which the enrichment ratio was ≤ 0.25.

Consider WMPI, for which the enrichment ratio is ≤ 0.25.

With NLMW, the enrichment ratio was ≤ 0.25. With NSPY the figure was ≤ 0.25; with KAGK, ≤ 0.25. KDIS: the enrichment ratio is ≤ 0.25. GIYD: the enrichment ratio is ≤ 0.25. With EIDN the figure was ≤ 0.25; with HYPS, ≤ 0.25. With KSTM the figure was ≤ 0.25; with IYKN, ≤ 0.25. With KITD the figure was ≤ 0.25. For the variant QWHR, the enrichment ratio was ≤ 0.25. The result for VHKT reads ≤ 0.25; that for VNCK, ≤ 0.25.

In the case of SQTS, the enrichment ratio was found to be 11.8. With KVFY the figure was ≤ 0.25; with PPRQ, ≤ 0.25. The result for FSMW reads ≤ 0.25; that for PMNI, ≤ 0.25. The result for SWHD reads ≤ 0.25; that for NGVM, ≤ 0.25. Consider EFCG, for which the enrichment ratio is ≤ 0.25. The result for TKKW reads ≤ 0.25; that for EDRQ, ≤ 0.25; that for WHAL, ≤ 0.25. The result for TQIW reads ≤ 0.25.

With MSKT, the enrichment ratio is ≤ 0.25. With YVYW, the enrichment ratio was ≤ 0.25.

As for LKVT, the enrichment ratio was ≤ 0.25. For the variant DSEY, the enrichment ratio was ≤ 0.25.

On to PSRG, for which the enrichment ratio was ≤ 0.25. For the variant CLAC, the enrichment ratio was ≤ 0.25. With EISV the figure was ≤ 0.25; with WFYE, ≤ 0.25; with ATAK, 4.57. With FDRC the figure was ≤ 0.25.

For KNWL, the enrichment ratio was ≤ 0.25. With YLFV the figure was ≤ 0.25. With VRAE the figure was ≤ 0.25; with VLLQ, ≤ 0.25. The result for GWDA reads ≤ 0.25; that for FIPE, ≤ 0.25. As for MWTL, the enrichment ratio is ≤ 0.25. With RSEP the figure was ≤ 0.25; with VHYP, ≤ 0.25. With NTHW the figure was ≤ 0.25. The result for CQLH reads 27.9; that for MYNP, 0.52. With DTKT, the enrichment ratio is ≤ 0.25. As for CHVH, the enrichment ratio is ≤ 0.25.

For the origin of these results see a collection of fitness landscapes (doi:10.1126/science.1257360).
